{"source": "paper PMC12040169", "about": "(PLOS Biology, 2025)", "note": "This is one part of the list."}
{"system": "T1, C. trachomatis L2/434/Bu expressing GFP (CTL2-GFP)", "T1 construct": "L2/434/Bu GFP intracellular growth in HeLa cells", "set-up": "species or system HeLa; C. trachomatis total inclusion area by high-content imaging, normalised to DMSO", "conditions": "total inclusion area; 28.5 h, 10 µM; inhibitor", "procedure,_shortened": "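Bulk GFP and resorufin signals were read first. Wells were then fixed, stained with Hoechst and imaged to detect GFP inclusions and host nuclei. MICs followed the previously described calculation.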"}
{"smiles": "COc1ccccc1C1(NCc2cnn(C)c2)CCCC1", "note": "[CBK282744]", "% of control remaining": 85.2162}
{"smiles": "CC(=O)N1CCC[C@H]1Cn1nc(-c2cccs2)ccc1=O", "note": "[CBK284249]", "% of control remaining": 75.196}
{"smiles": "CC1CCN(S(=O)(=O)c2ccc(NC(=O)COc3ccc([N+](=O)[O-])cc3)cc2)CC1", "note": "[CBK264994]", "% of control remaining": 96.4119}
{"smiles": "C/C(=N\\NC(=O)c1nonc1N)c1ccc(Cl)cc1", "note": "[CBK025664]", "% of control remaining": 109.903}
{"smiles": "COc1ccc(-c2ccccc2)cc1NCc1cc2cc(OC)c(OC)cc2[nH]c1=O", "note": "[CBK286160]", "% of control remaining": 90.2172}
{"smiles": "CCOc1ccc(-c2nc(CC(=O)O)cs2)cc1", "note": "[CBK295300]", "% of control remaining": 126.84}
{"smiles": "O=C1N=C(NCC2CCCCC2)SC1CC(=O)N1CCCC(O)C1", "note": "(stereo not shown) [CBK067919]", "% of control remaining": 83.3311}
{"smiles": "COc1cnc(-c2cc(Cl)cc(Cl)c2)c(NC(C)=O)n1", "note": "[CBK145333]", "% of control remaining": 145.415}
{"smiles": "CCn1ncc(CN2C3CCC2CC(O)(c2ccccc2F)C3)c1C", "note": "(stereo not shown) [CBK282663]", "% of control remaining": 118.771}
{"smiles": "O=C(O)c1sccc1Oc1ccc(F)cc1[N+](=O)[O-]", "note": "[CBK066847]", "% of control remaining": 95.6723}
{"smiles": "O=C(OCc1ccccc1)N1CCC(C2OCc3cc(-c4cccc5ncccc45)ccc3O2)CC1", "note": "(stereo not shown) [CBK144644]", "% of control remaining": 55.9994}
{"smiles": "CCOC(=O)NC(=O)N1CCC(N2C(=O)OCC2(C)C)CC1", "note": "[CBK044179]", "% of control remaining": 44.2764}
{"smiles": "C/C(=N/NC(=O)CSc1nc2ccccc2n1C)c1cccc([N+](=O)[O-])c1", "note": "[CBK263179]", "% of control remaining": 68.7083}
{"smiles": "O=C(CSc1nnc(-c2ccccc2O)n1-c1ccccc1)N1CCc2ccccc21", "note": "[CBK268097]", "% of control remaining": 87.0181}
{"smiles": "c1cn2cc(-c3ccc(N4CCOCC4)cc3)nc(NCC3CCOCC3)c2n1", "note": "[CBK037308]", "% of control remaining": 170.918}
{"smiles": "COc1ccccc1NC(=O)C(=O)NCCc1c[nH]c2ccccc12", "note": "[CBK266672]", "% of control remaining": 78.7657}
{"smiles": "O=C(/C=C/c1c(Cl)cccc1Cl)Nc1ccc(S(=O)(=O)Nc2ncccn2)cc1", "note": "[CBK265490]", "% of control remaining": 78.2657}
{"smiles": "O=C(c1cccc(-c2cncc(-c3ccc(O)cc3)n2)c1)N1CCOCC1", "note": "[CBK123796]", "% of control remaining": 120.483}
{"smiles": "O=C1c2ccccc2C(=O)N1CSc1nnc(SCN2C(=O)c3ccccc3C2=O)s1", "note": "[CBK263694]", "% of control remaining": 93.5029}
{"smiles": "Cc1cccc(-c2nc3ccc(NC(=O)CCC(=O)O)cc3o2)c1", "note": "[CBK269773]", "% of control remaining": 110.612}
{"smiles": "OC1(c2ccccc2)CCN(Cc2ccccc2-n2cccn2)C1", "note": "(stereo not shown) [CBK282795]", "% of control remaining": 75.4657}
{"smiles": "O=C(O)COc1ccc(/C=N/n2cnnc2)cc1Cl", "note": "[CBK263902]", "% of control remaining": 97.6541}
{"smiles": "CC(=O)Nc1ccc(-c2ccc(C(=O)N3CCN(C4CCN(C)CC4)CC3)cn2)cc1", "note": "[CBK158824]", "% of control remaining": 81.4735}
{"smiles": "Cc1ccc(CN(C)CC(=O)Nc2cc(C(F)(F)F)ccc2Cl)o1", "note": "[CBK306085]", "% of control remaining": 45.0013}
{"smiles": "COc1ccc(CCCC(=O)Nc2cc3cccnc3c(Br)n2)cc1", "note": "[CBK119486]", "% of control remaining": 90.0159}
{"smiles": "Cn1nc(-c2ccccc2)cc1[C@H]1CN2CC[C@H]1C[C@@H]2CNC(=O)N1CCOCC1", "note": "[CBK289094]", "% of control remaining": 78.2623}
{"smiles": "CCn1cc(-c2cncn2CCCn2ccnc2C(C)C)cn1", "note": "[CBK282244]", "% of control remaining": 97.2537}
{"smiles": "COCCn1c(=O)n(Cc2ccccc2)c2cccnc21", "note": "[CBK283964]", "% of control remaining": 103.747}
{"smiles": "NC(=O)c1nnc2ccc(Cl)cc2c1N", "note": "[CBK026161]", "% of control remaining": 73.162}
{"smiles": "CN(C)c1ccc(/C=C/c2noc(-c3ccccc3O)n2)cc1", "note": "[CBK268438]", "% of control remaining": 135.532}
{"smiles": "CC(C)C(=O)N1CCC(Cn2nc(-c3ccccc3)ccc2=O)CC1", "note": "[CBK284114]", "% of control remaining": 81.4186}
{"smiles": "COC(=O)c1c(NC(=S)Nc2cnccn2)sc2c1CCC(C)C2", "note": "(stereo not shown) [CBK266893]", "% of control remaining": 97.4204}
{"smiles": "COc1ccc(OC)c(N/C=C(/C#N)c2nc(-c3cc4c(ccc5ccccc54)oc3=O)cs2)c1", "note": "[CBK262991]", "% of control remaining": 83.5697}
{"smiles": "O=C(Nc1cccc(-c2nnco2)c1)C1CCCCC1", "note": "[CBK296662]", "% of control remaining": 104.613}
{"smiles": "O=C(O)CCc1nc2nc(-c3ccco3)cc(C(F)(F)F)n2n1", "note": "[CBK286889]", "% of control remaining": 99.8351}
{"smiles": "CC(C)c1csc(C2CCN(C(=O)CCc3ccsc3)CC2)n1", "note": "[CBK305327]", "% of control remaining": 14.5323}
{"smiles": "Cc1n[nH]c(C)c1CCC(=O)N/N=C/c1cccc(O)c1", "note": "[CBK262910]", "% of control remaining": 115.366}
{"smiles": "COc1cccc(NC(=O)C2CCCCC2C(=O)O)c1", "note": "(stereo not shown) [CBK262410]", "% of control remaining": 97.7109}
{"smiles": "COCC(C)NC(=O)Cn1c(-c2ccc(F)cc2)cc2cccnc21", "note": "(stereo not shown) [CBK284863]", "% of control remaining": 96.9924}
{"smiles": "C/C(=N\\NC(=N)N)C(F)(F)F", "note": "[CBK023019G]", "% of control remaining": 96.7365}
{"smiles": "CC(C)NC(=O)CN1CCC(N(C)Cc2cccc(C(F)(F)F)c2)CC1", "note": "[CBK305429]", "% of control remaining": 97.5215}
{"smiles": "Cn1cnnc1SCCNC(=O)N1CCc2sccc2C1", "note": "[CBK307385]", "% of control remaining": 62.8635}
{"smiles": "Cc1c(C(=O)O)sc(S(=O)(=O)N2CCN(C(=O)CC(C)c3ccccc3)CC2)c1C(=O)O", "note": "(stereo not shown) [CBK297143]", "% of control remaining": 82.9217}
{"smiles": "CC(C)COC(=O)CCNc1n[nH]c(=O)[nH]c1=O", "note": "[CBK293920]", "% of control remaining": 80.6092}
{"smiles": "Cc1nn(C)cc1-c1c(C#N)c(N)nc2c1CN(Cc1ccco1)CC2", "note": "[CBK306722]", "% of control remaining": 90.266}
{"smiles": "CC12CN3CC(C)(CN(C1)C3c1ccc(Br)cc1)C2=O", "note": "(stereo not shown) [CBK261452]", "% of control remaining": 107.408}
{"smiles": "COCCNc1nc(-c2ccccc2CO)cnc1N", "note": "[CBK063575]", "% of control remaining": 96.6549}
{"smiles": "CCOc1ccc(N2C(=O)CC(NC3CCN(c4ncccn4)CC3)C2=O)cc1", "note": "(stereo not shown) [CBK269972]", "% of control remaining": 105.11}
{"smiles": "Cc1cc(C(=O)NC(C)Cn2nc(C)cc2C)c2cccc(C)c2n1", "note": "(stereo not shown) [CBK281635]", "% of control remaining": 96.6541}
{"smiles": "CCCNc1cc(C)nc2cc(-c3ccc(OC)c(OC)c3)nn12", "note": "[CBK287805]", "% of control remaining": 97.4013}
{"smiles": "OC1(CN2CCCC2)COCCN(c2nnc(-c3ccccc3)s2)C1", "note": "(stereo not shown) [CBK306558]", "% of control remaining": 113.482}
{"smiles": "Cc1ccc(C(=O)NCc2ccco2)c(NCc2cccnc2)n1", "note": "[CBK076383]", "% of control remaining": 103.856}
